These results are taken from paper PMC9604039.

Like-named read-outs stand apart in the source and are kept apart here. No constants are given. Whether binding was seen depends on the method and setting. For part of these data: In cells and extracts the contact can be indirect. Some binding calls cover weakened binding; strength is not graded here. For part of these data: Tags and fused reporters may be left off the sequences shown.

Assay [1] has as its target T1, OsCIPK17 (BiFC fusion) (rice (Oryza sativa)) (UniProt Q75L42).
T1 sequence: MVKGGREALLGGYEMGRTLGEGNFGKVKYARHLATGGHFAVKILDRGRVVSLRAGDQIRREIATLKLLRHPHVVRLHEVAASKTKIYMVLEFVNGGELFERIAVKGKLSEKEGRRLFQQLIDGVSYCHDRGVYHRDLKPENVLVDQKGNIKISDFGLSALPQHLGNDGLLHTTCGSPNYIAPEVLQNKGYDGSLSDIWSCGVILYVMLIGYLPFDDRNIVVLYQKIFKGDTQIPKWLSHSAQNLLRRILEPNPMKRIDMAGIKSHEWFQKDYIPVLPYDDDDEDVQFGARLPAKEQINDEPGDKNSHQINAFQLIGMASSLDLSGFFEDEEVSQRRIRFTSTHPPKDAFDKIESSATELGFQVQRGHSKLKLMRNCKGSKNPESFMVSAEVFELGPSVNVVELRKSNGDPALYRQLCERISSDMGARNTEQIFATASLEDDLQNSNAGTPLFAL
Put plainly: split reporter; BiFC with pSPYCE/pSPYNE fusions expressed in Nicotiana benthamiana leaves for three days; YFP fluorescence by confocal microscopy.

In assay [2] the target is T2, OsCIPK17 (rice (Oryza sativa)) (UniProt Q75L42).
T2 sequence: T1 sequence
The assay is described as follows: two-hybrid; Matchmaker Gold system, Y2HGold strain; OsCBL in pGADT7, OsCIPK in pGBKT7; growth on DDO, then TDO and QDO media.

For assay [3], the target named is T3, OsCIPK8 (rice (Oryza sativa)) (UniProt Q5JLD8).
T3 sequence: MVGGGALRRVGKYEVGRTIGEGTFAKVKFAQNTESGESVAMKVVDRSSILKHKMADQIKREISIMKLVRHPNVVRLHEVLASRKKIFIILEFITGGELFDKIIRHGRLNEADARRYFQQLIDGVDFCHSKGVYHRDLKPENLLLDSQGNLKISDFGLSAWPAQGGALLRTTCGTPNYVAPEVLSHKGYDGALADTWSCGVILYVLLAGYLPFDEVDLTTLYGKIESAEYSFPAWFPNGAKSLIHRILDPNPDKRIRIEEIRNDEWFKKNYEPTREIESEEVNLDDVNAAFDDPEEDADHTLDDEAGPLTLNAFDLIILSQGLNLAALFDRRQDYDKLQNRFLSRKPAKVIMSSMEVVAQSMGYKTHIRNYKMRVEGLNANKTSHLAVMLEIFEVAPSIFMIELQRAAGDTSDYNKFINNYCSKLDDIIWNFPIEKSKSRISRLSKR
The assay is described as above.

For assay [4], the target named is T4, OsCIPK23 (rice (Oryza sativa)) (UniProt Q6ZLP5).
T4 sequence: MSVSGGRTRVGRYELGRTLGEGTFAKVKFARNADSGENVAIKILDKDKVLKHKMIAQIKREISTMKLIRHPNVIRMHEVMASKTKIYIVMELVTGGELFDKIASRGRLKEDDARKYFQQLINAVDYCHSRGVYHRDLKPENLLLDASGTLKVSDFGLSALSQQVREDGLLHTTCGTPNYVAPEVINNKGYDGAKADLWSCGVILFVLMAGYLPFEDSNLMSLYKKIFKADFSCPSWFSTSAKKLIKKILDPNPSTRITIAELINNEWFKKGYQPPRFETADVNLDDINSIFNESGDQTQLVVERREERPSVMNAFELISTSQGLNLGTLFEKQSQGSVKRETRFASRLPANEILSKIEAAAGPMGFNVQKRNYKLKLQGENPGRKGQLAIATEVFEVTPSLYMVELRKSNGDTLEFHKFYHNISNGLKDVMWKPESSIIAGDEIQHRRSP
Described as above.

Assay [5] concerns the target T5, OsCIPK24 (rice (Oryza sativa)) (UniProt Q69Q47).
T5 sequence: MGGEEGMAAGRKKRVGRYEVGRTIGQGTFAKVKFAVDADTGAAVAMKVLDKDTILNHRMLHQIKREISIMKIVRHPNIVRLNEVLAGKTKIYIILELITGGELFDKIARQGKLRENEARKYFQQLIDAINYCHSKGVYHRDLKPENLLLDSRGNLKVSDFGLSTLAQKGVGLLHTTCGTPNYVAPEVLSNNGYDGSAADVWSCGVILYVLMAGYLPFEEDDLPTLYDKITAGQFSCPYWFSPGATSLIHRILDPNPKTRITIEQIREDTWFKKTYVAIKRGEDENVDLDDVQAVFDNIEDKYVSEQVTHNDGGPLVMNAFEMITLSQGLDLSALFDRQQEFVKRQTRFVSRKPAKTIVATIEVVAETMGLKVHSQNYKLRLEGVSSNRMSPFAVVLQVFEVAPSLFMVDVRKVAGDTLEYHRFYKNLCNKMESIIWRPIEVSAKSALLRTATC
The assay is described as above.

Assay [6] concerns the target T1, OsCIPK17 (BiFC fusion) (rice (Oryza sativa)). Put plainly: split reporter; BiFC with pSPYCE/pSPYNE fusions expressed in Nicotiana benthamiana leaves for three days; YFP fluorescence by confocal microscopy. This is another data set of the same source.
Assay [7] addresses T2, OsCIPK17 (rice (Oryza sativa)). Put plainly: two-hybrid; Y2H of OsCIPK17 with predicted target proteins; for OsJAMYB AbA and 3-AT were added to QDO medium to inhibit self-activation; vectors of the partners not stated.

“OsCBL2 (BiFC fusion) (from UniProt Q3HRP5 1-225)”: in assay [1], the binding result is given as “binds”.

Turning to OsCBL2 (from UniProt Q3HRP5 1-225), the binding entry is “binds” in assay [2], “binds” in assay [3], “no binding” in assay [4] and “no binding” in assay [5].

B1: OsCBL8 (protein, UniProt Q3HRN9 1-213)
chain: MGCVSSKQFKRAAQHEDPAILAKETTFSVSEVEALFELFKKISHSIFRDGLIHKEEFQLALFRNSNKKNLFANRIFDLFDLKRNGVIDFGEFVRSLSIFHPETPLGDKIAFAFRLYDLRGTGCIEREELHEMVLALLNESDLFLSEEAVEQIVDQTFKQADLNDDGKIDPDEWKTFASKNPALLKNMTLPYLKDITMVFPSFILNSEVCEEEL
As for B1, the binding result in assay [2] was “binds”; in assay [3], “binds”; in assay [4], “no binding”; in assay [5] it was “binds”.

B2: OsCBL8 (BiFC fusion) (protein, UniProt Q3HRN9 1-213)
chain: B1 chain
B2: the binding result in assay [6] is recorded as “binds”.

B3: OsJAMYB (protein, UniProt Q2QZJ8 1-285)
chain: MEMVLQRTSHHPVPGEQQEAAAELSSAELRRGPWTVDEDLTLINYISDHGEGRWNALARAAGLKRTGKSCRLRWLNYLRPDVKRGNFTAEEQLLILDLHSRWGNRWSKIAQHLPGRTDNEIKNYWRTRVQKHAKQLNCDVNSKRFKDAMKYLWMPRLAERIHARAGAVDDSGDYSNNDLSCVSGVTMATVANCFDGSPSMVTSSSSDSFTSESQDLKKINLHVHGDDEKMNSEDWMQEVDHEFWSTEIQPNNEQFQDQQLNGWVQGFSEGLSETLWSLEDIWKMQ
B3: the binding result in assay [7] is listed as “binds”.

B4: OsJAMYB (BiFC fusion) (protein, UniProt Q2QZJ8 1-285)
chain: B3 chain
For B4, the binding entry in assay [6] is on record as “binds”.
